In patent US20220153864A1:

Key:
[1] = molecular target: 32 different targets including GPC3, GPC5, and other TNF receptor proteins; experiment: off-target ELISA on 32 coated targets, binder at 10 nM, signals normalized to control antibody SEQ ID NOs: 106 and 107 and summed
[2] = molecular target: 32 different targets including GPC3, GPC5, and other TNF receptor proteins; experiment: off-target ELISA on 32 coated targets, binder at 100 nM, signals normalized to control antibody SEQ ID NOs: 106 and 107 and summed
[3] = molecular target: 32 different targets including GPC3, GPC5, and other TNF receptor proteins; experiment: off-target ELISA on 32 coated targets, sum of the ratios at 100 nM and 10 nM

| cumulative binding ratio [1] | cumulative binding ratio [2] | sum of cumulative binding ratios [3] | Binder |
| --- | --- | --- | --- |
| 32 | 38 | 70 | CD137 specific lipocalin mutein (Fc fusion) (SEQ ID NO: 98) (Fc fusion) [omitted - human IgG4 Fc with S228P F234A L235A (EU numbers)]GGGGSGGGGSGGGGSQDSTSDLIPAPPLSKVPLQQNFQDNQFHGKWYVVGQAGNIRLREDKDPIKMMATIYELKEDKSYDVTMVKFDDKKCMYDIWTFVPGSQPGEFTLGKIKSFPGHTSSLVRVVSTNYNQHAMVFFKFVFQNREEFYITLYGRTKELTSELKENFIRFSKSLGLPENHIVFPVPIDQCIDG |
| 144 | 207 | 352 | previously known CD137/GPC3 bispecific fusion protein (SEQ ID NO: 83) (protein) QDSTSDLIPAPPLSKVPLQQNFQDNQFQGKWYVVGRAGNVGLREDKDPPKMWATIYELKEDKSYDVTNVRFARKKCTYSIGTFVPGSQPGEFTLGQIKSEPGGTANLVRVVSTNYNQHAMVFFKEVYQNREIFFIILYGRTKELTSELKENFIRFSKSLGLPENHIVFPVPIDQCIDGGGGGSGGGGSGGGGS[omitted - human IgG4 Fc with S228P F234A L235A (EU numbers)]GGGGSGGGGSGGGGSQDSTSDLIPAPPLSKVPLQQNFQDNQFHGKWYVVGQAGNIRLREDKDPIKMMATIYELKEDKSYDVTMVKFDDKKCMYDIWTFVPGSQPGEFTLGKIKSFPGHTSSLVRVVSTNYNQHAMVFFKFVFQNREEFYITLYGRTKELTSELKENFIRFSKSLGLPENHIVFPVPIDQCIDG |
